Test results as given in article PMC6212790.
The other results are listed elsewhere or left out. At the low end of the ranking the order means little.

Biological target: T1, GST-Rok (full length) (UniProt O34857)
T1 sequence: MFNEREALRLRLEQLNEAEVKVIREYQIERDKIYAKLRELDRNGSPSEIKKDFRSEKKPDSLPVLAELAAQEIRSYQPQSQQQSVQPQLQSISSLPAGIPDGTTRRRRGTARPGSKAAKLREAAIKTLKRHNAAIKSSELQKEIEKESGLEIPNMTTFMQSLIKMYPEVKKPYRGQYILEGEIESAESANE
Experiment: protein binding microarray;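 note: rank score from −0.5 (least bound) to 0.5 (best bound)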
Conditions: Rok is a gene silencer of Bacillus subtilis; high values mean tight binding; most listed sequences are background and not binding sites; double strand, one strand shown

Sequence	binding signal
CTAGACGA	0.00484 E-score
CCGCACGG	-0.234 E-score
GACATTAC	0.194 E-score
CATGTCCC	-0.34 E-score
CGGCCTAA	-0.179 E-score
CAACGAAG	0.0144 E-score
ACCACTGA	0.093 E-score
GAAACGAC	-0.132 E-score
GGTATTCA	-0.0162 E-score
ATGCCCCG	-0.0941 E-score
CCTAGAGA	-0.145 E-score
GCCATGCA	-0.3 E-score
ACTCCAGT	0.0434 E-score
AATGGGTG	0.102 E-score
CACTTACA	0.102 E-score
AAGATGCG	0.0484 E-score
AATTTTTG	0.102 E-score
GTTCTAGA	0.163 E-score
CTGACAAC	0.0564 E-score
CAGGTCGA	-0.0198 E-score
CCAATTGG	-0.0925 E-score
CGCCACCA	-0.214 E-score
GATTACCA	0.138 E-score
GCGTAATA	0.27 E-score
CTGCCGAA	-0.156 E-score

Sequence	binding signal
CTTACCTA	0.115 E-score
GGTCAACA	-0.0732 E-score
CTTGTCTA	-0.00192 E-score
CTCCAAAC	-0.0323 E-score
CTCTACCA	0.109 E-score
GATCCAGA	0.0609 E-score
ACATTAGT	0.305 E-score
CCCATTTC	0.00645 E-score
GAGGCTAC	-0.278 E-score
GTGGACAC	-0.27 E-score
AGCCATGA	-0.0278 E-score
GAAACCGA	-0.119 E-score
TATATTGA	0.278 E-score
CGGGGAGC	-0.398 E-score
AGGCCCAC	-0.421 E-score
ACTGCACG	0.0331 E-score
TACTTATA	0.321 E-score
ACTCTAAC	0.13 E-score
AGTCTGAG	0.0409 E-score
GACAGTAA	0.135 E-score
AGCCGTTA	0.171 E-score
AGTAACAA	0.117 E-score
CGGCCTGA	-0.2 E-score
TAACATTA	0.321 E-score
CAAGAGGG	-0.294 E-score

Sequence	binding signal
ACTGAATA	0.168 E-score
ACAAGCAA	0.046 E-score
CATGATGA	0.0688 E-score
GCGAGCTA	0.182 E-score
AAGGAAAC	-0.199 E-score
ACTAGATC	0.327 E-score
TCTGGCAA	-0.15 E-score
ACATCGAG	0.125 E-score
ATAGTTAA	0.329 E-score
ACCTGCGG	-0.172 E-score
AGTATCGG	0.0403 E-score
GACCGATA	0.00594 E-score
GAGTGGAA	-0.253 E-score
AAGTTAGG	0.125 E-score
TAGATGGA	-0.0691 E-score
TAGTGCAA	0.225 E-score
CACGGAGC	-0.103 E-score
CAGCCCTC	-0.241 E-score
CTAGGAAA	0.0106 E-score
CAGCTATC	0.00359 E-score
CCTGTATC	0.00402 E-score
CGTAAGAA	0.0442 E-score
AGTCGATG	0.0219 E-score
TGTGTCAA	-0.102 E-score
TGTAGACA	0.159 E-score

Sequence	binding signal
GTGCAGTA	0.317 E-score
CCGTTGAA	0.00615 E-score
AGCTAAAA	0.15 E-score
CGAATGCA	-0.00835 E-score
TGGGTGAA	0.132 E-score
AATACGTG	0.202 E-score
CAGCCTGG	-0.226 E-score
GCGATAAA	0.182 E-score
ACATCCTA	0.222 E-score
TAATGATA	0.225 E-score
AACACAGT	-0.00279 E-score
CCGCCAAG	-0.31 E-score
ACCATACG	0.0631 E-score
ACGCTGTC	-0.0854 E-score
CGTCTCCA	-0.107 E-score
CTCAGTTA	0.0853 E-score
CGCGGATC	0.00436 E-score
CCATTGGC	-0.199 E-score
AACCCATG	0.0717 E-score
GCCGTTTA	-0.159 E-score
GAATTGAC	0.0331 E-score
AGAAAGCA	-0.038 E-score
CCGTTGCC	-0.292 E-score
ACCGTGCA	0.204 E-score
CTAGGTTC	0.115 E-score

Sequence	binding signal
GAAGGCAA	-0.277 E-score
CCGGACAC	5.9e-05 E-score
GTCTAGTA	0.174 E-score
CCTCATAA	-0.103 E-score
GACAGAAC	-0.0014 E-score
AGTTATTG	0.285 E-score
CTACGAAA	0.142 E-score
GTAATAGA	0.257 E-score
GGTACAAC	-0.0759 E-score
AAAGCTCC	-0.0639 E-score
CGACCAAC	-0.166 E-score
AGCGTGCG	-0.149 E-score
ACTTTACT	0.179 E-score
CTGCGAAA	-0.125 E-score
CTAGCGCC	-0.19 E-score
CGGTCTAA	-0.00451 E-score
CCCTATGA	-0.11 E-score
CCGAGTGA	-0.183 E-score
CCCTAGAA	-0.0316 E-score
ACACGCGT	0.153 E-score
ATCTCACG	-0.0282 E-score
AATCATGC	0.00628 E-score
AGTTTAAA	0.16 E-score
AGACAAAG	-0.0603 E-score
CGGTAACC	-0.0601 E-score

Sequence	binding signal
ATCGATCG	0.0887 E-score
CCTTACCC	-0.241 E-score
GAGCTCGA	0.0487 E-score
GGTGTTCA	-0.0432 E-score
GCCGCCTA	-0.131 E-score
ACCGCCCG	-0.224 E-score
ATAGACAC	0.111 E-score
CGAGGAAC	-0.158 E-score
ATCGTTAA	0.103 E-score
ACCTTTAA	0.053 E-score
AGCACACT	-0.0547 E-score
ATGTACGC	0.143 E-score
GCTCAACA	-0.187 E-score
CGCCAGAG	-0.265 E-score
AAAGAGTG	-0.0742 E-score
GATGATCC	-0.0833 E-score
ACACGAAC	0.162 E-score
CCCTACTA	-0.0153 E-score
TTGATCAA	0.164 E-score
AAAAGTAC	0.239 E-score
GTCACTCA	0.0147 E-score
CTCACAAG	-0.0773 E-score
CTTGTTTA	0.0282 E-score
TTAGCCAA	0.0979 E-score
TCCTGTCA	-0.127 E-score

Sequence	binding signal
ACCGTCCT	-0.0322 E-score
AATACGCG	0.216 E-score
AGTATTAT	0.358 E-score
CTCGAAAG	-0.0828 E-score
ATAACCCA	0.0794 E-score
ACATTCCG	0.267 E-score
ATGTAGGC	-0.0373 E-score
GTGAGGTA	0.255 E-score
CCATACAA	0.172 E-score
CCTCGACA	-0.211 E-score
CACAACTC	0.0125 E-score
CTTCCGAC	-0.223 E-score
ATAACAGC	0.134 E-score
AACCCTGA	-0.274 E-score
GAGAAGGC	-0.293 E-score
ATCGGCCC	-0.172 E-score
GACCTACA	-0.0845 E-score
AGACTGAG	-0.0917 E-score
CCCCTATC	-0.328 E-score
CTATGGAA	0.146 E-score
GCATCCAC	-0.0472 E-score
AATCGTAC	0.137 E-score
